Data on 88 compounds can be found in PubChem BioAssay AID463173 (ICCB-Longwood Screening Facility, Harvard Medical School, 2010).

The whole screen tested about 52,000 compounds, of which about 4,300 (8.3%) were called active. No stated cut-off is given here; in the data, active means survival mostly below about 52% (no sharp cut-off); inactive means mostly above about 56%. Some of the results follow.

For this experiment, the system named is DeltatarO mutant. As to the kind of experiment: growth inhibition of S. aureus wild type versus tarO mutant, primary screen, teichoic acid synthesis inhibitors, RN4220, OD600 (AID 463173). Conditions: OD600, 18 h, active compounds read low, screened at 18.75 µg/mL (by protocol).
Turning to `Cc1ccc(C)c(CN2C(=O)c3ccccc3S(=O)(=O)c3ccc(C(=O)OCC4CCCO4)cc32)c1` (stereo not drawn), the survival is inactive: 94%. The same measure for `CN(c1ccccc1)S(=O)(=O)c1ccc(NC(=O)c2nc(S(C)(=O)=O)ncc2Cl)cc1`: active: -1%; for `COc1ccc(-c2c(C#N)c(SCC(=O)Nc3ccccc3C)nc(C)c2C(=O)Nc2ccc(Cl)cc2)cc1`: inactive: 160%; for `COC(=O)c1c(NC(=O)CCCOc2cccc(C)c2)sc2c1CCC2`: active: 15%. With `Cc1cc(O)c(C(c2cccc(F)c2)N2CCN(c3ccccc3)CC2)c(=O)n1Cc1ccco1` (stereo not drawn), the survival was inactive: 66%.

For `CCOCC(=O)Nc1nnc(CC)s1`, the survival was inactive: 66%. The same measure for `Cc1cc(C)n(-c2nnc(Nc3ccc(C)c(C)c3)c3ccccc23)n1`: inactive: 83%; for `O=C(Cn1c(=O)nc(-c2ccccc2)c2cc(Cl)ccc21)NCCCc1ccccc1`: inactive: 54%. For the compound `CCc1nn(CC(=O)NC2CC2)c(=O)c2cc3ccccc3n12`, the survival is inactive: 120%. The same measure for `COc1cccc(CNC(=O)c2c3c(nc4ccccc24)C(=O)N(C2CCCCC2)C3)c1`: active: 46%; for `Cn1cc(C(=O)NCc2ccccc2)c(=O)c2cc(S(=O)(=O)N3CCCCCC3)ccc21`: inactive: 118%. For the compound `CCc1ccc(OCC(=O)NCC(c2ccc(OC)cc2)N2CCOCC2)cc1` (stereo not drawn), the survival was inactive: 73%. For the compound `CCSc1nc(=O)c2c(n1C)NC(=O)CC2c1ccc(O)cc1OC` (stereo not drawn), the survival is inactive: 57%. For `Cc1cccc(C)c1NC(=O)CN(C)S(=O)(=O)c1ccc2c(c1)n(C)c(=O)c(=O)n2C`, the survival was inactive: 89%. As to `CC(=O)c1cccc(NC(=O)Cn2c(C)c3cnn(-c4ccccc4)c(=O)c3c2C)c1`, the survival was inactive: 114%. For the compound `Cc1ccc2c(CNC3CCC(C)CC3)c(C(=O)O)n(Cc3cccc(F)c3)c2c1` (stereo not drawn), the survival is inactive: 90%. Consider `CCN(CC)CCNC(=O)c1ccc2c(c1)N(Cc1ccccc1)C(=O)c1ccccc1S2=O` (stereo not drawn), for which the survival is inactive: 140%. Regarding `COc1ccc(-n2c(=O)c3sc4ccccc4c3n(Cc3ccccc3)c2=O)cc1`, the survival was inactive: 84%.

Take `COc1cc(NC(=O)c2cc3nc(-c4ccccc4)cc(-c4ccccc4)n3n2)c(OC)cc1Cl`: the survival is inactive: 64%.

Take `CC1CCN(c2nc3ccc(C(=O)NCc4ccc(Cl)cc4)cc3s2)CC1`: the survival is inactive: 128%. The same measure for `O=C1C2C3C=CC(C3)C2C(=O)N1CCN1CCN(S(=O)(=O)c2cccs2)CC1` (stereo not drawn): inactive: 66%; for `COc1ccc(C(=O)Nc2ccc3nc(SCC(=O)N4CCOCC4)sc3c2)cc1`: inactive: 82%.

For the compound `COC(=O)c1ccc(OC)c(Cn2c(=O)n(-c3ccc(C)cc3)c(=O)c3c2cnn3C)c1`, the survival was inactive: 68%. With `COc1ccc(C2CC(=O)N(CC(=O)Nc3ccc(C(F)(F)F)cc3)c3ccccc3S2)cc1` (stereo not drawn), the survival is inactive: 88%.

`CCCCc1ccc(Nc2ncnc3c2cnn3-c2ccc(C)cc2)cc1`: the survival was active: 17%. Regarding `CCC1CCCCN1C(=O)Cn1c(=O)n(CC2CCC(C(=O)NC)CC2)c(=O)c2sccc21` (stereo not drawn), the survival was inactive: 102%. With `COc1cc(OC)c(NC(=O)c2cc(S(=O)(=O)N3CCCC3)cn2C)cc1Cl`, the survival is inactive: 66%. As for `CC(NC(=O)CSc1n[nH]c(-c2ccccc2)n1)c1nc2ccccc2n1C` (stereo not drawn), the survival is inactive: 80%. `Cc1ccc(S(=O)Cc2nc(-c3ccc(C(=O)NC(C)c4ccccc4)cc3)oc2C)cc1` (stereo not drawn): the survival was inactive: 88%. `Cc1ccc(CN2C(=O)C(C)(C)Oc3ccc(C(=O)NC4CC4)cc32)cc1`: the survival is inactive: 95%.

Take `O=C(Nc1ccc(OC(F)(F)F)cc1)NC1COc2ccccc2C1` (stereo not drawn): the survival was active: 0%.

On to `C=CCC(C#Cc1ccccc1)N(C)C` (stereo not drawn), for which the survival is inactive: 94%. `COc1ccc(Cl)cc1S(=O)(=O)Nc1cccc(-c2ccc(N3CCOCC3)nn2)c1`: the survival was inactive: 97%. For the compound `O=C(/C=C/c1ccccc1)N1CCCC1=O`, the survival was inactive: 94%. For the compound `Cc1ccc2c(c1)nc(SCC(O)c1ccc(Br)cc1)n2C` (stereo not drawn), the survival is inactive: 70%. The same measure for `COc1ccc(N2CCN(Cc3nc4c(c(=O)[nH]c(=O)n4C)n3Cc3ccccc3)CC2)cc1`: inactive: 112%; for `Cn1c(=O)c2sccc2n2c(CCC(=O)NCc3ccccc3)nnc12`: inactive: 135%. The same measure for `CC(C)=CC1C(C(=O)Nc2ccc(Cl)cn2)C1(C)C` (stereo not drawn): inactive: 70%; for `Cc1ccccc1Oc1nc2c(c(=O)n(C)c(=O)n2C)n1Cc1ccc(Br)cc1`: inactive: 143%; for `Cn1c(N2CCN(S(=O)(=O)c3ccc(Cl)cc3)CC2)nc2ccccc21`: inactive: 83%. `CCC(NC(C)=O)c1ccccc1` (stereo not drawn): the survival was inactive: 71%. On to `COc1cc(-c2nnc(SCC(=O)NC(C)C)o2)cc(OC)c1OC`, for which the survival was inactive: 111%.

On to `CCOc1ccc(CCNC(=O)C2Cc3ccccc3N2C(=O)CC)cc1OCC` (stereo not drawn), for which the survival was inactive: 93%.

In the case of `CC(=O)c1ccc(NC(=O)CSc2ccc3nc(-c4ccccc4)cn3n2)cc1`, the survival is inactive: 89%.

Regarding `CN(C)c1ccc(CNC(=O)C(Cc2ccccc2)NS(=O)(=O)c2ccc3c(c2)oc(=O)n3C)cc1` (stereo not drawn), the survival is inactive: 83%.

In the case of `Cc1ccc(N(CC(=O)Nc2ccc(Br)c(C)c2)S(=O)(=O)c2cccs2)cc1`, the survival was inactive: 69%. As to `NC(=O)c1c(O)c2c([nH]c1=O)CCCC2`, the survival was inactive: 80%. With `COc1cccc(CCNc2ncnc3c2nnn3C)c1`, the survival was inactive: 83%. As for `O=C(CCCn1c(=O)c2ccccc2n(CC(=O)Nc2ccc(F)cc2F)c1=O)NCc1ccccc1Cl`, the survival was inactive: 97%.

Take `O=C(NCc1ccc(F)cc1)c1cc2c(s1)-c1ccccc1SC2`: the survival was active: 45%. The same measure for `COc1ccc(NC(=O)c2cc3c(=O)n(Cc4ccco4)ccc3nc2C)c(OC)c1`: inactive: 81%; for `CCCCOC(=O)c1ccc(NC(=O)/C(C#N)=C/c2ccc(-c3ccccc3)o2)cc1`: active: 32%; for `COc1cc2c(=O)n(CCC(=O)NCC3CCCO3)c(=O)n(CC(=O)Nc3c(C)cccc3C)c2cc1OC` (stereo not drawn): inactive: 63%.

As for `COc1ccc(OC)c(NC(=O)C(CCSC)NS(=O)(=O)c2cccs2)c1` (stereo not drawn), the survival is inactive: 88%. In the case of `COc1ccc(-c2nc(SCC(=O)N3CCC(C)CC3)n[nH]2)cc1`, the survival is inactive: 134%. Consider `COc1ccc(C(=O)Nc2ccc(C(=O)OCc3cc(=O)n4nc(C(C)C)sc4n3)cc2)cc1`, for which the survival was inactive: 94%. For the compound `Cc1ccc(Cl)cc1NC(=O)/C(C#N)=C\c1cn(Cc2ccc(F)cc2)c2ccccc12`, the survival was inactive: 98%. On to `CCOC(=O)c1c(S(=O)(=O)NCC(=O)NCc2ccc(C)cc2)c(C)n(C)c1C`, for which the survival was inactive: 91%. For the compound `Cc1ccccc1C(=O)Nc1ccc2nc(SCCOc3ccccc3)sc2c1`, the survival was inactive: 79%.

On to `Fc1ccc(CNc2cc(-c3ccccc3)nc3nncn23)cc1`, for which the survival was active: 17%.

Consider `N#Cc1cc2cc3c(cc2nc1SCC(=O)N1CCN(c2ccc(F)cc2)CC1)OCCO3`, for which the survival is inactive: 67%. In the case of `CCc1ccc(CNC(=O)Cc2c(C(=O)O)c(C)cn2C)cc1`, the survival was inactive: 91%.

Consider `CCc1nnc(SCc2nc(-c3ccccc3)oc2C)c2cc3sccc3n12`, for which the survival was inactive: 75%. The same measure for `Cc1ccc(C)c(NC(=O)Cn2c(=O)n(Cc3cccs3)c(=O)c3cccnc32)c1`: inactive: 66%; for `COc1ccc(-c2cn3nc(N4CCC(C(=O)Nc5cc(Cl)ccc5OC)CC4)sc3n2)cc1`: inactive: 74%; for `CC(C)(C)OC(=O)N1CCC(c2c(C(=O)N3CCN(c4ncccn4)CC3)cnn2-c2ccc(F)cc2F)CC1`: active: 6%. With `CCOC(=O)C1=C(CS(=O)(=O)c2ccc(C)c(C)c2)NC(=O)NC1c1ccccc1OCC` (stereo not drawn), the survival was inactive: 73%.

For `CCOc1ccc(NC(=O)Cn2c(=O)n(Cc3nc(-c4ccccc4)no3)c(=O)c3ccccc32)cc1`, the survival was inactive: 84%. For the compound `O=C(Cn1c(=O)ccc2cc(S(=O)(=O)N3CCCC3)ccc21)NCc1ccc(F)cc1`, the survival is inactive: 107%. On to `COc1ccc(N(CC(=O)N2CCN(c3cccc(OC)c3)CC2)S(=O)(=O)c2c(C)noc2C)cc1`, for which the survival was inactive: 71%. For the compound `COc1cccc(C2Nc3ccccc3-c3nnc(SCc4ccccc4)nc3O2)c1OC` (stereo not drawn), the survival was inactive: 140%. Turning to `O=C(Nc1ccc(F)c(Cl)c1)C1CCCN1S(=O)(=O)c1ccc(F)cc1` (stereo not drawn), the survival was inactive: 76%. Turning to `Cc1ccc(S(=O)(=O)c2nc(-c3ccccc3)oc2SCC(=O)NC2CCCCC2)cc1`, the survival is inactive: 166%.

Consider `CCNC(=S)N1CCN(C(=O)c2ccco2)CC1`, for which the survival was inactive: 74%.

For the compound `COC(=O)c1ccc(OC2OCCOC2Oc2ccc(C(=O)OC)cc2)cc1` (stereo not drawn), the survival was inactive: 90%. In the case of `COc1ccc(-n2ncc3c2ncn2nc(-c4ccc(Cl)cc4Cl)nc32)cc1`, the survival is inactive: 68%. Consider `COc1cccc(OC)c1Cn1nnc2c(=O)[nH]c(C3CCN(C(=O)c4ccccc4)CC3)nc21`, for which the survival is inactive: 56%. With `COc1cc(OC)c(NC(=O)c2ccc3c(Cl)c4c(nc3c2)CCCC4)cc1Cl`, the survival is inactive: 85%.

On to `COc1ccc(CCNC(=O)CSCc2nc(-c3ccc(OC)c(OC)c3)oc2C)cc1OC`, for which the survival is inactive: 69%. In the case of `COCCNc1ccc(-c2nc(-c3cccc(C)c3)no2)cc1[N+](=O)[O-]`, the survival was inactive: 81%. For the compound `CN1C(=O)c2ccccc2Sc2ccc(NC(=O)COc3ccc(Cl)cc3)cc21`, the survival was inactive: 65%. `O=C1CN(c2ccccc2)C(=S)N1C(=O)c1ccccc1`: the survival was inactive: 91%. Regarding `Nc1nc(SC#CC(F)(F)F)ns1`, the survival was active: 13%. Consider `CC1CCCN(C(=O)Cn2c(=O)n(CC3CCC(C(=O)NC(C)C)CC3)c(=O)c3sccc32)C1` (stereo not drawn), for which the survival was inactive: 120%. As for `Cn1c(=O)n(CCCc2ccccc2)c(=O)c2c1nc1n2CCN1c1ccccc1`, the survival was inactive: 75%. The same measure for `CCOC(=O)c1scc(-c2ccc(C)cc2)c1S(=O)(=O)Nc1ccc(F)c(F)c1`: inactive: 82%; for `O=C(Nc1ccccc1)C1CCN(C(=O)c2cccs2)CC1`: active: 67%. With `COc1ccc2c(c1)c(=O)c(C(=O)c1ccc(Cl)cc1)cn2CC(=O)Nc1ccc2c(c1)OCO2`, the survival is inactive: 81%.
